Results as given in US11618753B2 (priority 2018, dated 2023).

tested on: MLKL phosphorylation, HT29-L23 human colorectal adenocarcinoma cells; assay: cells; details: read-out: pMLKL HCS Cell Assay (IC50, uM)

COc1ncc(-c2cc(CN(C)C)c3c(N)ncnn23)cc1C(=O)N[C@@H]1CN(C(=O)C2CC(F)(F)C2)C[C@@H]1F [Example 485, 5-{4-amino-5-[(dimethylamino)methyl]pyrrolo[2,1-f][1,2,4]triazin-7-yl}-N-[(3R,4S)-1-(3,3-difluorocyclobutanecarbonyl)-4-fluoropyrrolidin-3-yl]-2-methoxypyridine-3-carboxamide] was tested. Which IC50 did it give?
Its IC50 is 0.0029 µM.

CNCc1cc(-c2cnc(OC)c(C(=O)N[C@@H]3CN(C(=O)C4CC(F)(F)C4)C[C@@H]3F)c2)n2ncnc(N)c12 [Example 486, 5-{4-amino-5-[(methylamino)methyl]pyrrolo[2,1-f][1,2,4]triazin-7-yl}-N-[(3R,4S)-1-(3,3-difluorocyclobutanecarbonyl)-4-fluoropyrrolidin-3-yl]-2-methoxypyridine-3-carboxamide] was tested. Which IC50 did it give?
The IC50 was 0.022 µM.

For COc1ncc(-c2cc(CN3CCOCC3)c3c(N)ncnn23)cc1C(=O)N[C@@H]1CN(C(=O)C2CC(F)(F)C2)C[C@@H]1F [Example 487, 5-{4-amino-5-[(morpholin-4-yl)methyl]pyrrolo[2,1-f][1,2,4]triazin-7-yl}-N-[(3R,4S)-1-(3,3-difluorocyclobutanecarbonyl)-4-fluoropyrrolidin-3-yl]-2-methoxypyridine-3-carboxamide], which IC50 is on record?
Its IC50 is 0.0013 µM.

Which IC50 does the source give for COc1ncc(-c2cc(CN3CC(O)C3)c3c(N)ncnn23)cc1C(=O)N[C@@H]1CN(C(=O)C2CC(F)(F)C2)C[C@@H]1F [Example 488, 5-{4-amino-5-[(3-hydroxyazetidin-1-yl)methyl]pyrrolo[2,1-f][1,2,4]triazin-7-yl]-N-[(3R,4S)-1-(3,3-difluorocyclobutanecarbonyl)-4-fluoropyrrolidin-3-yl]-2-methoxypyridine-3-carboxamide] here?
Its IC50 is 0.012 µM.

With COc1ncc(-c2cc(CN3CC(F)(F)C3)c3c(N)ncnn23)cc1C(=O)N[C@@H]1CN(C(=O)C2CC(F)(F)C2)C[C@@H]1F [Example 489, 5-{4-amino-5-[(3,3-difluoroazetidin-1-yl)methyl]pyrrolo[2,1-f][1,2,4]triazin-7-yl}-N-[(3R,4S)-1-(3,3-difluorocyclobutanecarbonyl)-4-fluoropyrrolidin-3-yl]-2-methoxypyridine-3-carboxamide] as the compound, how does the IC50 read?
The IC50 was 0.00076 µM.

Which IC50 does the source give for COc1ncc(-c2cc(CN3CC(C)OC(C)C3)c3c(N)ncnn23)cc1C(=O)N[C@@H]1CN(C(=O)C2CC(F)(F)C2)C[C@@H]1F (stereo partly drawn) [Example 490, 5-{4-amino-5-[(2,6-dimethylmorpholin-4-yl)methyl]pyrrolo[2,1-f][1,2,4]triazin-7-yl}-N-[(3R,4S)-1-(3,3-difluorocyclobutanecarbonyl)-4-fluoropyrrolidin-3-yl]-2-methoxypyridine-3-carboxamide] here?
Its IC50 is 0.03 µM.

How did the IC50 turn out when COc1ncc(-c2cc(COC(C)C)c3c(N)ncnn23)cc1C(=O)N[C@@H]1CN(C(=O)C2CC(F)(F)C2)C[C@@H]1F [Example 491, 5-{4-amino-5-[(propan-2-yloxy)methyl]pyrrolo[2,1-f][1,2,4]triazin-7-yl}-N-[(3R,4S)-1-(3,3-difluorocyclobutanecarbonyl)-4-fluoropyrrolidin-3-yl]-2-methoxypyridine-3-carboxamide] was run?
The IC50 was 0.0052 µM.

With COCc1cc(-c2cnc(OC)c(C(=O)N[C@@H]3CN(C(=O)C4CC(F)(F)C4)C[C@@H]3F)c2)n2ncnc(N)c12 [Example 492, 5-[4-amino-5-(methoxymethyl)pyrrolo[2,1-f][1,2,4]triazin-7-yl]-N-[(3R,4S)-1-(3,3-difluorocyclobutanecarbonyl)-4-fluoropyrrolidin-3-yl]-2-methoxypyridine-3-carboxamide] as the compound, how does the IC50 read?
Its IC50 is 0.0067 µM.

How did the IC50 turn out when COC(=O)NCc1cc(-c2cnc(OC)c(C(=O)N[C@@H]3CN(C(=O)C4CC(F)(F)C4)C[C@@H]3F)c2)n2ncnc(N)c12 [Example 493, methyl N-{[4-amino-7-(5-{[(3R,4S)-1-(3,3-difluorocyclobutanecarbonyl)-4-fluoropyrrolidin-3-yl]carbamoyl]-6-methoxypyridin-3-yl)pyrrolo[2,1-f][1,2,4]triazin-5-yl]methyl}carbamate] was run?
Its IC50 is 0.106 µM.

With COc1ncc(-c2cc(CNS(C)(=O)=O)c3c(N)ncnn23)cc1C(=O)N[C@@H]1CN(C(=O)C2CC(F)(F)C2)C[C@@H]1F [Example 494, 5-[4-amino-5-(methanesulfonamidomethyl)pyrrolo[2,1-f][1,2,4]triazin-7-yl]-N-[(3R,4S)-1-(3,3-difluorocyclobutanecarbonyl)-4-fluoropyrrolidin-3-yl]-2-methoxypyridine-3-carboxamide] as the compound, how does the IC50 read?
The IC50 was 0.139 µM.

COc1ncc(-c2cc(CNC(C)=O)c3c(N)ncnn23)cc1C(=O)N[C@@H]1CN(C(=O)C2CC(F)(F)C2)C[C@@H]1F [Example 495, 5-[4-amino-5-(acetamidomethyl)pyrrolo[2,1-f][1,2,4]triazin-7-yl]-N-[(3R,4S)-1-(3,3-difluorocyclobutanecarbonyl)-4-fluoropyrrolidin-3-yl]-2-methoxypyridine-3-carboxamide] was tested. Which IC50 did it give?
Its IC50 is 0.313 µM.

COc1ncc(-c2cc(CN3CC4(COC4)C3)c3c(N)ncnn23)cc1C(=O)N[C@@H]1CN(C(=O)C2CC(F)(F)C2)C[C@@H]1F [Example 496, 5-[4-amino-5-({2-oxa-6-azaspiro[3.3]heptan-6-yl}methyl)pyrrolo[2,1-f][1,2,4]triazin-7-yl]-N-[(3R,4S)-1-(3,3-difluorocyclobutanecarbonyl)-4-fluoropyrrolidin-3-yl]-2-methoxypyridine-3-carboxamide] was tested. Which IC50 did it give?
The IC50 was 0.013 µM.

How did the IC50 turn out when COc1ncc(-c2cc(CN3CC(N)C3)c3c(N)ncnn23)cc1C(=O)N[C@@H]1CN(C(=O)C2CC(F)(F)C2)C[C@@H]1F [Example 497, 5-{4-amino-5-[(3-aminoazetidin-1-yl)methyl]pyrrolo[2,1-f][1,2,4]triazin-7-yl]-N-[(3R,4S)-1-(3,3-difluorocyclobutanecarbonyl)-4-fluoropyrrolidin-3-yl]-2-methoxypyridine-3-carboxamide] was run?
Its IC50 is 0.286 µM.

Which IC50 does the source give for COc1ncc(-c2cc(CN3CCC3)c3c(N)ncnn23)cc1C(=O)N[C@@H]1CN(C(=O)C2CC(F)(F)C2)C[C@@H]1F [Example 498, 5-{4-amino-5-[(azetidin-1-yl)methyl]pyrrolo[2,1-f][1,2,4]triazin-7-yl}-N-[(3R,4S)-1-(3,3-difluorocyclobutanecarbonyl)-4-fluoropyrrolidin-3-yl]-2-methoxypyridine-3-carboxamide] here?
The IC50 was 0.0038 µM.

For COc1ncc(-c2cc(CN3CCS(=O)(=O)CC3)c3c(N)ncnn23)cc1C(=O)N[C@@H]1CN(C(=O)C2CC(F)(F)C2)C[C@@H]1F [Example 499, 5-{4-amino-5-[(1,1-dioxo-thiomorpholin-4-yl)methyl]pyrrolo[2,1-f][1,2,4]triazin-7-yl}-N-[(3R,4S)-1-(3,3-difluorocyclobutanecarbonyl)-4-fluoropyrrolidin-3-yl]-2-methoxypyridine-3-carboxamide], which IC50 is on record?
The IC50 was 0.011 µM.

COc1ncc(-c2cc(CNCCO)c3c(N)ncnn23)cc1C(=O)N[C@@H]1CN(C(=O)C2CC(F)(F)C2)C[C@@H]1F [Example 500, 5-(4-amino-5-{[(2-hydroxyethyl)amino]methyl}pyrrolo[2,1-f][1,2,4]triazin-7-yl)-N-[(3R,4S)-1-(3,3-difluorocyclobutanecarbonyl)-4-fluoropyrrolidin-3-yl]-2-methoxypyridine-3-carboxamide] was tested. Which IC50 did it give?
The IC50 was 0.036 µM.
